The source of these data is the supplement of paper PMC9174493.

The other results are listed elsewhere or left out. Single values of this set are uncertain. Values with irradiation are relative to irradiated vehicle.

The test system of this test is A549-Dual. As to the kind of experiment: ISRE reporter (Lucia luciferase) activity, viability-corrected, relative to vehicle (fold change vs vehicle); higher = more activation of STING-IRF / NF-kB immune response reporter. The settings on record: 10 µM; irradiation: none.
Compound `Nc1ncnc2c1ncn2C1OC(CO)C(O)C1O` (stereo unspecified) [Vidarabine] registered an ISRE reporter of 0.983.

Regarding `Cc1c(C)c2c(c(C)c1O)CCC(C)(CCCC(C)CCCC(C)CCCC(C)C)O2` (racemic) [(±)-α-Tocopherol], the ISRE reporter worked out at 0.42.

`CC(CNC(=O)c1cccnc1)NC(=O)c1cccnc1` (stereo unspecified) [Nicaraven] came in with an ISRE reporter of 0.619.

In turn, `CCC1OC(=O)C(C)C(OC2CC(C)(OC)C(O)C(C)O2)C(C)C(OC2OC(C)CC(N(C)C)C2O)C(C)(O)CC(C)CNC(C)C(O)C1(C)O` (stereo unspecified) [Azathramycin] showed an ISRE reporter of 0.78.

For `COc1ccc(/C=C/C(=O)Nc2ccccc2C(=O)O)cc1OC` [Tranilast], the ISRE reporter was found to be 0.857.

On to `CSCCNc1nc(SCCC(F)(F)F)nc2c1ncn2C1OC(COP(=O)([O][Na])OP(=O)([O][Na])C(Cl)(Cl)P(=O)([O][Na])[O][Na])C(O)C1O` (stereo unspecified) [Cangrelor Tetrasodium], for which the ISRE reporter is 0.821.

`CC(=O)OC1(C(C)=O)CCC2C3C=C(Cl)C4=CC(=O)CCC4(C)C3CCC21C` (stereo unspecified) [Chlormadinone acetate] came in with an ISRE reporter of 0.441.

On to `CCCN(CCC)CCc1cccc2c1CC(=O)N2.Cl` [Ropinirole HCl], for which the ISRE reporter was 0.733.

In turn, `CN(C)CCCN1c2ccccc2Sc2ccccc21.Cl` [Promazine hydrochloride] registered an ISRE reporter of 1.19.

In turn, `CCCCc1oc2ccccc2c1C(=O)c1cc(I)c(OCCN(CC)CC)c(I)c1.Cl` [Amiodarone HCl] registered an ISRE reporter of 1.71.

For `Cc1c(C(=O)NN2CCCCC2)nn(-c2ccc(Cl)cc2Cl)c1-c1ccc(Cl)cc1` [Rimonabant], the ISRE reporter came to 0.642.
